Measured values taken from the BET-seq Pho4 binding data (Le et al. 2018).
This is one part of the list. Values were computed here from the reads of four pooled replicates and scatter widely.

Each sequence was assayed against T1, Pho4 (S. cerevisiae) (UniProt P07270) (assay: relative binding free energy (BET-seq); higher = weaker binding). Conditions: reference: library average.
T1 sequence: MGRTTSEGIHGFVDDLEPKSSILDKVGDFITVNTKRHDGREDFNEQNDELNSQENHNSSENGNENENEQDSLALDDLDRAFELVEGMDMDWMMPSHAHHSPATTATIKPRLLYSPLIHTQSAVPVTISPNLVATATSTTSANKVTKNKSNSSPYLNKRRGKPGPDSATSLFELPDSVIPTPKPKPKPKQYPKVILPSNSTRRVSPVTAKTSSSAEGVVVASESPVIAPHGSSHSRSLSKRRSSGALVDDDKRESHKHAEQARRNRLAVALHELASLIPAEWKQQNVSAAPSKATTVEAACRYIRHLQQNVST

**Q.** TTTTTCACGTGCAATG was tested. Which “relative binding free energy” value did it give?
**A.** The value was 0.33 kcal/mol.

**Q.** How did the “relative binding free energy” value turn out when ATTAACACGTGAAGTT was run?
**A.** The value was 0.3 kcal/mol.

**Q.** Which “relative binding free energy” value does the source give for AAGGGCACGTGGTATC here?
**A.** Its value is -0.11 kcal/mol.

**Q.** With CGTTTCACGTGGTGGT as the sequence, how does the “relative binding free energy” value read?
**A.** Its value is 0.35 kcal/mol.

**Q.** How did the “relative binding free energy” value turn out when TTTCGCACGTGTATCG was run?
**A.** The value was 0.08 kcal/mol.

**Q.** With GTATCCACGTGGTGTA as the sequence, how does the “relative binding free energy” value read?
**A.** Its value is -0.09 kcal/mol.

**Q.** For ATTTACACGTGGACGG, which “relative binding free energy” value is on record?
**A.** The value was 0.13 kcal/mol.

**Q.** How did the “relative binding free energy” value turn out when GCGTTCACGTGTTTGG was run?
**A.** Its value is 0.32 kcal/mol.

**Q.** For GAATGCACGTGGATTG, which “relative binding free energy” value is on record?
**A.** The value was -0.08 kcal/mol.

**Q.** For GTGGCCACGTGGTTGC, which “relative binding free energy” value is on record?
**A.** Its value is -0.17 kcal/mol.

**Q.** For GTGGGCACGTGTTATT, which “relative binding free energy” value is on record?
**A.** Its value is -0.03 kcal/mol.

**Q.** How did the “relative binding free energy” value turn out when TCGGGCACGTGTTGGC was run?
**A.** The value was -0.02 kcal/mol.

**Q.** For CATGTCACGTGATGTA, which “relative binding free energy” value is on record?
**A.** The value was 0.19 kcal/mol.

**Q.** ATCTACACGTGTTGTT was tested. Which “relative binding free energy” value did it give?
**A.** Its value is 0.06 kcal/mol.

**Q.** TGTTGCACGTGGGCTA was tested. Which “relative binding free energy” value did it give?
**A.** The value was -0.22 kcal/mol.

**Q.** For GGTAGCACGTGTAGGG, which “relative binding free energy” value is on record?
**A.** The value was -0.05 kcal/mol.

**Q.** How did the “relative binding free energy” value turn out when TGCGGCACGTGTCTTG was run?
**A.** Its value is -0.13 kcal/mol.

**Q.** With ATGTTCACGTGGCCAT as the sequence, how does the “relative binding free energy” value read?
**A.** Its value is 0.19 kcal/mol.

**Q.** CGAGTCACGTGTGATA was tested. Which “relative binding free energy” value did it give?
**A.** The value was 0.28 kcal/mol.

**Q.** How did the “relative binding free energy” value turn out when TGGCTCACGTGGGATT was run?
**A.** The value was 0.14 kcal/mol.

**Q.** For ATGGGCACGTGTAAAG, which “relative binding free energy” value is on record?
**A.** The value was 0.04 kcal/mol.

**Q.** With ATTGACACGTGTTGAT as the sequence, how does the “relative binding free energy” value read?
**A.** The value was -0.01 kcal/mol.

**Q.** For TTGTTCACGTGATTTA, which “relative binding free energy” value is on record?
**A.** The value was 0.38 kcal/mol.

**Q.** For TTTGTCACGTGCAAAT, which “relative binding free energy” value is on record?
**A.** The value was 0.04 kcal/mol.

**Q.** Which “relative binding free energy” value does the source give for TATGGCACGTGATAAG here?
**A.** The value was -0.11 kcal/mol.

**Q.** TGGTCCACGTGAAGGT was tested. Which “relative binding free energy” value did it give?
**A.** Its value is 0.23 kcal/mol.

**Q.** With TTGGGCACGTGGGCTG as the sequence, how does the “relative binding free energy” value read?
**A.** The value was -0.18 kcal/mol.

**Q.** How did the “relative binding free energy” value turn out when CGAGTCACGTGGGGGG was run?
**A.** The value was -0.05 kcal/mol.

**Q.** Which “relative binding free energy” value does the source give for AGTTTCACGTGCTAAT here?
**A.** Its value is 0.25 kcal/mol.

**Q.** Which “relative binding free energy” value does the source give for TGTGTCACGTGTCCGT here?
**A.** The value was 0.03 kcal/mol.

**Q.** GGCTACACGTGTTGGG was tested. Which “relative binding free energy” value did it give?
**A.** The value was 0.33 kcal/mol.

**Q.** For CGGGCCACGTGAGGGG, which “relative binding free energy” value is on record?
**A.** The value was 0.03 kcal/mol.

**Q.** How did the “relative binding free energy” value turn out when TTCGGCACGTGCTGGA was run?
**A.** The value was -0.08 kcal/mol.

**Q.** For TGTTTCACGTGTGGCG, which “relative binding free energy” value is on record?
**A.** The value was 0.29 kcal/mol.

**Q.** How did the “relative binding free energy” value turn out when TTGGCCACGTGTCGGG was run?
**A.** Its value is -0.18 kcal/mol.

**Q.** How did the “relative binding free energy” value turn out when ATGGGCACGTGGCCGT was run?
**A.** The value was -0.24 kcal/mol.

**Q.** With GATGTCACGTGGCGTG as the sequence, how does the “relative binding free energy” value read?
**A.** The value was 0.11 kcal/mol.

**Q.** How did the “relative binding free energy” value turn out when CGCTTCACGTGGTGTG was run?
**A.** Its value is 0.16 kcal/mol.

**Q.** Which “relative binding free energy” value does the source give for TTTGGCACGTGGTTAC here?
**A.** The value was -0.25 kcal/mol.

**Q.** For TTTATCACGTGGATAA, which “relative binding free energy” value is on record?
**A.** The value was 0.18 kcal/mol.

**Q.** How did the “relative binding free energy” value turn out when TGGTCCACGTGGGTTG was run?
**A.** The value was -0.16 kcal/mol.

**Q.** How did the “relative binding free energy” value turn out when ATTAGCACGTGGGGGC was run?
**A.** The value was -0.23 kcal/mol.

**Q.** Which “relative binding free energy” value does the source give for TGTGTCACGTGTTGGC here?
**A.** Its value is -0.05 kcal/mol.

**Q.** With CATAGCACGTGGGGCT as the sequence, how does the “relative binding free energy” value read?
**A.** The value was -0.19 kcal/mol.

**Q.** For CGGATCACGTGTGGAT, which “relative binding free energy” value is on record?
**A.** Its value is 0.09 kcal/mol.

**Q.** How did the “relative binding free energy” value turn out when ATATACACGTGTGTAA was run?
**A.** Its value is -0.09 kcal/mol.

**Q.** GTTTTCACGTGGTAAG was tested. Which “relative binding free energy” value did it give?
**A.** The value was 0.27 kcal/mol.

**Q.** How did the “relative binding free energy” value turn out when GGAGGCACGTGTGGGA was run?
**A.** Its value is 0.04 kcal/mol.

**Q.** For TAGCGCACGTGGAGGT, which “relative binding free energy” value is on record?
**A.** Its value is -0.19 kcal/mol.

**Q.** With CGTAACACGTGTAGGG as the sequence, how does the “relative binding free energy” value read?
**A.** The value was -0.19 kcal/mol.

**Q.** Which “relative binding free energy” value does the source give for GCGAACACGTGAGGGT here?
**A.** Its value is 0.15 kcal/mol.

**Q.** With TGTGCCACGTGAGTGG as the sequence, how does the “relative binding free energy” value read?
**A.** Its value is 0.03 kcal/mol.

**Q.** CTAGGCACGTGTATGG was tested. Which “relative binding free energy” value did it give?
**A.** Its value is -0.14 kcal/mol.

**Q.** CTTGACACGTGGGCGG was tested. Which “relative binding free energy” value did it give?
**A.** Its value is -0.16 kcal/mol.

**Q.** For GGGCCCACGTGTGGGT, which “relative binding free energy” value is on record?
**A.** Its value is 0.09 kcal/mol.

**Q.** Which “relative binding free energy” value does the source give for AGTTGCACGTGCTCGG here?
**A.** The value was -0.05 kcal/mol.

**Q.** TTTCACACGTGGGTGA was tested. Which “relative binding free energy” value did it give?
**A.** Its value is -0.01 kcal/mol.

**Q.** For TTGAGCACGTGTTCGT, which “relative binding free energy” value is on record?
**A.** The value was -0.16 kcal/mol.

**Q.** GCGTTCACGTGGGTGA was tested. Which “relative binding free energy” value did it give?
**A.** Its value is 0.12 kcal/mol.

**Q.** With TTAAGCACGTGGGATA as the sequence, how does the “relative binding free energy” value read?
**A.** Its value is -0.25 kcal/mol.

**Q.** Which “relative binding free energy” value does the source give for TGTTGCACGTGGGGGC here?
**A.** The value was -0.18 kcal/mol.

**Q.** Which “relative binding free energy” value does the source give for AGTGTCACGTGCTCTT here?
**A.** The value was 0 kcal/mol.

**Q.** With GAGAGCACGTGGTTGC as the sequence, how does the “relative binding free energy” value read?
**A.** The value was -0.03 kcal/mol.
